Data from the supplement of paper PMC4967469.
Lines with a small IC50 respond at low doses; a fit beyond the top or the lowest dose is shown as a bound at that dose. AUC, from the same fit, is the share of area under the viability curve across the 256-fold dose range; the more sensitive the line, the further below 1. A top dose marked as inferred is not printed in the source and was worked back from the curve model.

compound: COc1ncc(-c2ccc3nccc(-c4ccnnc4)c3c2)cc1NS(=O)(=O)c1ccc(F)cc1F [GSK2126458]; experiment: Viability of human cancer cell lines after 72 h of drug (GDSC screen); settings: top dose inferred
Protocol: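 Human cancer cell lines in 384-well plates, medium with 10% serum, drug for 72 h over a 256-fold dose range (nine 2-fold or five 4-fold steps up to the top dose). Adherent lines were fixed and stained with the nucleic acid dye Syto60, suspension lines read with resazurin; signal relative to control wells, capped at 0 and 100%. One two-parameter sigmoid per drug and line, fitted in a mixed model over all curves with the slope shared within a line.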

Going from “SCC-3 (B-cell lymphoma, suspension, top dose 0.128 µM)” to “SCC-4 (head and neck, adherent, top dose 0.128 µM)”, the AUC falls from 0.898 to 0.857.

Going from “SCC-9 (head and neck, adherent, top dose 0.128 µM)” to “SCC-15 (head and neck, adherent, top dose 0.128 µM)”, the AUC rises from 0.392 to 0.587.

Going from “SCC-25 (head and neck, adherent, top dose 0.128 µM)” to “SCH (stomach, adherent, top dose 0.128 µM)”, the AUC rises from 0.611 to 0.969.

Going from “SF126 (glioma, adherent, top dose 0.128 µM)” to “SF268 (glioma, adherent, top dose 0.128 µM)”, the AUC rises from 0.693 to 0.743.

First: SF295 (glioma, adherent, top dose 0.128 µM)
Second: SF539 (glioma, adherent, top dose 0.128 µM)
The AUC of the first is lower: 0.627 for the first, 0.683 for the second.

First: SH-4 (melanoma, adherent, top dose 0.128 µM)
Second: SHP-77 (small cell lung carcinoma, semi-adherent, top dose 0.128 µM)
The AUC of the first is lower: 0.781 for the first, 0.844 for the second.

Going from “SIG-M5 (acute myeloid leukaemia, suspension, top dose 0.128 µM)” to “SIMA (neuroblastoma, adherent, top dose 0.128 µM)”, the AUC rises from 0.124 to 0.859.

First: SISO (cervix, adherent, top dose 0.128 µM)
Second: SJRH30 (rhabdomyosarcoma, adherent, top dose 0.128 µM)
The AUC of the first is higher: 0.839 for the first, 0.649 for the second.

Compared with “SJSA-1 (bone, adherent, top dose 0.128 µM)”, “SK-CO-1 (large intestine, adherent, top dose 0.128 µM)” is higher in AUC: 0.633 for the first, 0.925 for the second.

Going from “SK-ES-1 (Ewing sarcoma, semi-adherent, top dose 0.128 µM)” to “SK-GT-4 (oesophagus, adherent, top dose 0.128 µM)”, the AUC rises from 0.523 to 0.625.

Going from “SK-HEP-1 (liver, adherent, top dose 0.128 µM)” to “SK-LMS-1 (soft tissue, adherent, top dose 0.128 µM)”, the AUC falls from 0.947 to 0.597.

Going from “SK-LU-1 (lung adenocarcinoma, adherent, top dose 0.128 µM)” to “SK-MEL-1 (melanoma, suspension, top dose 0.128 µM)”, the AUC rises from 0.873 to 0.881.

Going from “SK-MEL-2 (melanoma, adherent, top dose 0.128 µM)” to “SK-MEL-3 (melanoma, adherent, top dose 0.128 µM)”, the AUC rises from 0.622 to 0.685.

Compared with “SK-MEL-5 (melanoma, adherent, top dose 0.128 µM)”, “SK-MEL-24 (melanoma, adherent, top dose 0.128 µM)” is higher in AUC: 0.814 for the first, 0.983 for the second.

Going from “SK-MEL-28 (melanoma, adherent, top dose 0.128 µM)” to “SK-MEL-30 (melanoma, adherent, top dose 0.128 µM)”, the AUC falls from 0.877 to 0.722.

Compared with “SK-MES-1 (lung squamous cell carcinoma, adherent, top dose 0.128 µM)”, “SK-MG-1 (glioma, adherent, top dose 0.128 µM)” is higher in AUC: 0.735 for the first, 0.987 for the second.

Going from “SK-MM-2 (myeloma, suspension, top dose 0.128 µM)” to “SK-N-AS (neuroblastoma, adherent, top dose 0.128 µM)”, the AUC rises from 0.281 to 0.779.

Going from “SK-N-DZ (neuroblastoma, adherent, top dose 0.128 µM)” to “SK-N-FI (neuroblastoma, adherent, top dose 0.128 µM)”, the AUC falls from 0.986 to 0.911.

Compared with “SK-N-SH (neuroblastoma, adherent, top dose 0.128 µM)”, “SK-OV-3 (ovary, adherent, top dose 0.128 µM)” is lower in AUC: 0.827 for the first, 0.513 for the second.

Compared with “SK-PN-DW (Ewing sarcoma, adherent, top dose 0.128 µM)”, “SK-UT-1 (soft tissue, adherent, top dose 0.128 µM)” is higher in AUC: 0.746 for the first, 0.877 for the second.

Compared with “SCC-3 (B-cell lymphoma, suspension, top dose 0.128 µM)”, “SCC-4 (head and neck, adherent, top dose 0.128 µM)” is higher in IC50: 81.5 nM for the first, > 128 nM for the second.

First: SCC-9 (head and neck, adherent, top dose 0.128 µM)
Second: SCC-15 (head and neck, adherent, top dose 0.128 µM)
The IC50 of the first is 4.1-fold lower: 3.7 nM for the first, 15 nM for the second.

Compared with “SCC-25 (head and neck, adherent, top dose 0.128 µM)”, “SCH (stomach, adherent, top dose 0.128 µM)” is higher in IC50: 16.8 nM for the first, > 128 nM for the second.

“SF126 (glioma, adherent, top dose 0.128 µM)” and “SF268 (glioma, adherent, top dose 0.128 µM)” are within 1.5-fold of each other in IC50: 28.8 nM for the first, 42.4 nM for the second.

“SF295 (glioma, adherent, top dose 0.128 µM)” and “SF539 (glioma, adherent, top dose 0.128 µM)” are within 1.5-fold of each other in IC50: 18.4 nM for the first, 24.5 nM for the second.

“SH-4 (melanoma, adherent, top dose 0.128 µM)” and “SHP-77 (small cell lung carcinoma, semi-adherent, top dose 0.128 µM)” are within 1.5-fold of each other in IC50: 88.3 nM for the first, 77.5 nM for the second.

Compared with “SIG-M5 (acute myeloid leukaemia, suspension, top dose 0.128 µM)”, “SIMA (neuroblastoma, adherent, top dose 0.128 µM)” is higher in IC50: 0.851 nM for the first, > 128 nM for the second.

Compared with “SISO (cervix, adherent, top dose 0.128 µM)”, “SJRH30 (rhabdomyosarcoma, adherent, top dose 0.128 µM)” is 3.9-fold lower in IC50: 82.5 nM for the first, 21 nM for the second.

Going from “SJSA-1 (bone, adherent, top dose 0.128 µM)” to “SK-CO-1 (large intestine, adherent, top dose 0.128 µM)”, the IC50 rises from 19.6 nM to > 128 nM.

First: SK-ES-1 (Ewing sarcoma, semi-adherent, top dose 0.128 µM)
Second: SK-GT-4 (oesophagus, adherent, top dose 0.128 µM)
The IC50 of the first is 2.1-fold lower: 9.28 nM for the first, 19.3 nM for the second.

Compared with “SK-HEP-1 (liver, adherent, top dose 0.128 µM)”, “SK-LMS-1 (soft tissue, adherent, top dose 0.128 µM)” is lower in IC50: > 128 nM for the first, 14.6 nM for the second.

Going from “SK-LU-1 (lung adenocarcinoma, adherent, top dose 0.128 µM)” to “SK-MEL-1 (melanoma, suspension, top dose 0.128 µM)”, the IC50 falls from > 128 nM to 103 nM.

First: SK-MEL-2 (melanoma, adherent, top dose 0.128 µM)
Second: SK-MEL-3 (melanoma, adherent, top dose 0.128 µM)
The IC50 of the first is 1.6-fold lower: 17.5 nM for the first, 28.7 nM for the second.

First: SK-MEL-5 (melanoma, adherent, top dose 0.128 µM)
Second: SK-MEL-24 (melanoma, adherent, top dose 0.128 µM)
The IC50 of the first is lower: 89.8 nM for the first, > 128 nM for the second.

First: SK-MEL-28 (melanoma, adherent, top dose 0.128 µM)
Second: SK-MEL-30 (melanoma, adherent, top dose 0.128 µM)
The IC50 of the first is 3.5-fold higher: 124 nM for the first, 35.5 nM for the second.

First: SK-MES-1 (lung squamous cell carcinoma, adherent, top dose 0.128 µM)
Second: SK-MG-1 (glioma, adherent, top dose 0.128 µM)
The IC50 of the first is lower: 40 nM for the first, > 128 nM for the second.

Going from “SK-MM-2 (myeloma, suspension, top dose 0.128 µM)” to “SK-N-AS (neuroblastoma, adherent, top dose 0.128 µM)”, the IC50 rises from 1.86 nM to 60.8 nM (33-fold).

“SK-N-DZ (neuroblastoma, adherent, top dose 0.128 µM)” and “SK-N-FI (neuroblastoma, adherent, top dose 0.128 µM)” cannot be ordered by IC50: > 128 nM for the first, > 128 nM for the second.

First: SK-N-SH (neuroblastoma, adherent, top dose 0.128 µM)
Second: SK-OV-3 (ovary, adherent, top dose 0.128 µM)
The IC50 of the first is 8.9-fold higher: 77.5 nM for the first, 8.75 nM for the second.

Going from “SK-PN-DW (Ewing sarcoma, adherent, top dose 0.128 µM)” to “SK-UT-1 (soft tissue, adherent, top dose 0.128 µM)”, the IC50 rises from 41.8 nM to 109 nM (2.6-fold).
